The values below come from paper PMC10691697, “A small molecule exerts selective antiviral activity by targeting the human cytomegalovirus nuclear egress complex” (PLOS Pathogens, 2023).

Several values for one entry are separate records, joined by “and”; a condition that tells them apart may be missing. Identical values can stand only once. Like-named read-outs stand apart in the source and are kept apart here.

In one series the target is T1, HCMV UL50-UL53 (Human cytomegalovirus, UniProt P16794).
T1 construct: GST (N, cleaved yes); 13-residue glycine-serine linker […]; made in house; host or cells: E. coli BL21 (DE3) RIPL
T1 sequence (P16794 50-292): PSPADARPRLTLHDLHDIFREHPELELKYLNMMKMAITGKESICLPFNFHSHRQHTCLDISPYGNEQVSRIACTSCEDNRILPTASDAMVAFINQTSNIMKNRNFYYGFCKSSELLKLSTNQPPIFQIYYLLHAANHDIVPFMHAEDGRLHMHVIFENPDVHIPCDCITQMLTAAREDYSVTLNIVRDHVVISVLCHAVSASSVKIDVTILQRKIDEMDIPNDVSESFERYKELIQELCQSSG
Briefly: biochemical. It counts as binding.

A further series deals with T2, HSV-1 P30-UL42 (Human herpesvirus 1, UniProt P10226).
T2 construct: containing UL42 residues 1–340; GST (N); glycine-serine linker of the modified pGEX6p plasmid (presence inferred) (N); made in house; host or cells: E. coli (UL42: pLysS BL21)
T2 sequence (P10226 1-340): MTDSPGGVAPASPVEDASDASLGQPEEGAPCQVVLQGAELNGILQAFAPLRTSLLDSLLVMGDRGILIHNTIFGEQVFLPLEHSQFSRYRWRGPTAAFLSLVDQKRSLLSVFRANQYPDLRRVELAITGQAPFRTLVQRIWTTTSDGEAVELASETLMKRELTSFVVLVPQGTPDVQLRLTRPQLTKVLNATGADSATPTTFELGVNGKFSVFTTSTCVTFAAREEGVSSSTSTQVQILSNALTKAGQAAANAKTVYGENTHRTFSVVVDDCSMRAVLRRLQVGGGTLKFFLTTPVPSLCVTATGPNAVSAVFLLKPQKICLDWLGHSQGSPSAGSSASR
Nature of the series: biochemical. In kind it is binding.

The test system of a further series is MCMV M50-M53. In kind it is binding. As to conditions: for normalized FRET signal relative to control without inhibitor: MCMV M50-M53, replicates.
The subject of another series is HSV-1 strain KOS. In kind it is cell-based, herpes simplex virus 1. The procedure:
Standard plaque reduction assays used to assess the antiviral activity of GK1 and GK2 against HSV in HFF cells were performed as described with minor modifications. Briefly, 1x10^5 HFF cells in each well of a 24-well plate were infected with ~ 100 PFU/well of HSV-1 strain KOS. After 2h, the inocula was removed and DMEM containing methylcellulose, 1% DMSO, and various concentrations of GK1 or GK2 was added. After two days, plaques were stained with crystal violet and counted. ED50’s for GK1 or GK2 were calculated as described above.

Another series in a line: in vitro. It counts as cell-based, human. As to conditions: human, read-out: CC50, cytotoxicity on HFF. As to the method: Cytotoxicities of various compounds were determined using a WST-1 assay that measures metabolic activity (Roche), and CC50’s were calculated as described previously.
For series [1], the system named is co-localization of UL53 with UL50 at the nuclear rim. It counts as cell-based. The following applies: 10 μM, WT-infected cells, MOI 1, 72 hpi.
Series [2] has as its system HCMV expressing GFP (53-F BADGFP).
The next series has as its system pp28 expression. The arrangement: method as in PMID 28100301. The following applies: 1 μM; cited from earlier work.

Usually CC50 stands for the concentration at which the toxic effect on the cells reaches its halfway point. With `C=CC(=O)Nc1cccc(Oc2ccnc3[nH]ccc23)c1` [GK2], the “reduction of NEC subunit interactions in the HTRF assay” value on HCMV UL50-UL53 (10 μM) is recorded as ~ 2.5 fold. Further, at HCMV UL50-UL53 (WT UL50-UL53, 0.20 μM compound, replicates, read-out: normalized FRET signal relative to control without inhibitor), the remaining activity at 0.2 µM stood at 91%. Further, the remaining activity at 1.56 µM at HSV-1 P30-UL42 (HSV1 P30-UL42, 1.56 μM compound, replicates, read-out: normalized FRET signal relative to control without inhibitor) worked out at 99%. Besides, the remaining activity at 3.13 µM at HSV-1 P30-UL42 (HSV1 P30-UL42, 3.13 μM compound, replicates, read-out: normalized FRET signal relative to control without inhibitor) is 99%. On HSV-1 P30-UL42 (HSV1 P30-UL42, 6.25 μM compound, replicates, read-out: normalized FRET signal relative to control without inhibitor), the remaining activity at 6.25 µM came to 106%. Moreover, on HSV-1 P30-UL42 (HSV1 P30-UL42, 50.00 μM compound, replicates, read-out: normalized FRET signal relative to control without inhibitor), the remaining activity at 50 µM is 89%. Further, on HSV-1 P30-UL42 (HSV1 P30-UL42, […] compound, replicates, read-out: normalized FRET signal relative to control without inhibitor), the remaining activity at 25 µM is 96%. On HSV-1 P30-UL42 (all concentrations tested (up to 50 μM)), the “inhibition in the HSV-1 P30-UL42 counterscreen assay” value was “did not show meaningful inhibition”. Besides, the “inhibition in HTRF assay for interactions of mouse cytomegalovirus NEC subunits” value in the series on MCMV M50-M53 is “did not show inhibition”. For the same molecule, the “normalized FRET signal relative to control without inhibitor” value was 99.0000 (2×) and 97.0000 in the series with MCMV M50-M53 (0.20 μM compound); 98.0000 in the series with MCMV M50-M53 (1.56 μM compound); 99.0000 and 97.0000 (2×) with MCMV M50-M53 (3.13 μM compound); 98.0000 in the series on MCMV M50-M53 (6.25 μM compound); 100.0000 and 96.0000 and 97.0000 in the series with MCMV M50-M53 (50.00 μM compound). The “ED50, anti-HSV-1” value with HSV-1 strain KOS (HFF, standard plaque reduction assay, 2 dpi) came out at 12 µM. Besides, the “cytotoxic potency relative to anti-HSV-1 potency” value in the series with HSV-1 strain KOS (two-day WST-1 vs HSV-1 plaque reduction) is 3- to 4 fold. Moreover, the CC50 came out at 21 µM in “in vitro” (WST-1, six days, in parallel with automated plaque reduction assay) and 36 µM in the series “in vitro” (WST-1, two days, in parallel with HSV-1 plaque reduction assay). Further, in series [1], the “subset of cells with substantial nucleoplasmic UL53 staining” value is ~ 20%. Besides, the “ED50, HCMV plaque formation” value in series [2] (HFF, automated plaque reduction assay, 6 dpi) is 4 µM. Further, the CC50/ED50 in series [2] (anti-HCMV ED50 (APRA) and parallel WST-1 CC50) was found to be 5.4. Also, the “inhibition of pp28 expression in a screen” value in the series with pp28 expression is on record as “did not score as positive”.
